# The list shows a part of the results.
# How the values were obtained:
# Assay in all cases: glycan array binding signal (z-score within array); higher = stronger binding
# Details in all cases: glycan notation: IUPAC condensed, linker removed
# [1] = target: Neu5Ac(a2-3)Gal6S(b1-4)[Fuc(a1-3)]GlcNAc
# Outline: (§1)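 The binding signal is a Z-score computed within each array and averaged over linkers. Arrays of the same protein sequence at different concentrations or buffers were also averaged together. Data originate from 3228 arrays in the Consortium for Functional Glycomics database, kept only where the protein sequence was available.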
# [2] = target: Neu5Ac(a2-3)GalNAc
# Outline: as §1
# [3] = target: Neu5Ac(a2-3)GalNAc(b1-4)GlcNAc
# Outline: as §1
# [4] = target: Neu5Ac(a2-3)[GalNAc(b1-4)]Gal(b1-4)Glc
# Outline: as §1
# [5] = target: Neu5Ac(a2-3)[GalNAc(b1-4)]Gal(b1-4)GlcNAc
# Outline: as §1
# [6] = target: Neu5Ac(a2-3)[Neu5Ac(a2-6)]GalNAc
# Outline: as §1
# [7] = target: Neu5Ac(a2-6)Gal
# Outline: as §1
# [8] = target: Neu5Ac(a2-6)Gal(b1-4)Glc
# Outline: as §1
# [9] = target: Neu5Ac(a2-6)Gal(b1-4)GlcNAc
# Outline: as §1
# [10] = target: Neu5Ac(a2-6)Gal(b1-4)GlcNAc(b1-2)Man(a1-3)[Gal(b1-4)GlcNAc(b1-2)Man(a1-6)]Man(b1-4)GlcNAc(b1-4)GlcNAc
# Outline: as §1
# [11] = target: Neu5Ac(a2-6)Gal(b1-4)GlcNAc(b1-2)Man(a1-3)[GlcNAc(b1-2)Man(a1-6)]Man(b1-4)GlcNAc(b1-4)GlcNAc
# Outline: as §1
# [12] = target: Neu5Ac(a2-6)Gal(b1-4)GlcNAc(b1-2)Man(a1-3)[GlcNAc(b1-2)Man(b1-4)GlcNAc(b1-2)Man(a1-6)]Man(b1-4)GlcNAc(b1-4)GlcNAc
# Outline: as §1
# [13] = target: Neu5Ac(a2-6)Gal(b1-4)GlcNAc(b1-2)Man(a1-3)[Neu5Ac(a2-6)Gal(b1-4)GlcNAc(b1-2)Man(a1-6)]Man(b1-4)GlcNAc(b1-4)GlcNAc
# Outline: as §1
# [14] = target: Neu5Ac(a2-6)Gal(b1-4)GlcNAc(b1-2)Man(a1-6)[Gal(b1-4)GlcNAc(b1-2)Man(a1-3)]Man(b1-4)GlcNAc(b1-4)GlcNAc
# Outline: as §1
# [15] = target: Neu5Ac(a2-6)Gal(b1-4)GlcNAc(b1-2)Man(a1-6)[GlcNAc(b1-2)Man(a1-3)]Man(b1-4)GlcNAc(b1-4)GlcNAc
# Outline: as §1
# [16] = target: Neu5Ac(a2-6)Gal(b1-4)GlcNAc(b1-3)Gal(b1-4)GlcNAc
# Outline: as §1
# [17] = target: Neu5Ac(a2-6)Gal(b1-4)GlcNAc(b1-3)Gal(b1-4)[Fuc(a1-3)]GlcNAc(b1-3)Gal(b1-4)[Fuc(a1-3)]GlcNAc
# Outline: as §1
# [18] = target: Neu5Ac(a2-6)Gal(b1-4)GlcNAc6S
# Outline: as §1
# [19] = target: Neu5Ac(a2-6)GalNAc
# Outline: as §1
# [20] = target: Neu5Ac(a2-6)GalNAc(b1-4)GlcNAc
# Outline: as §1
# [21] = target: Neu5Ac(a2-8)Neu5Ac
# Outline: as §1
# [22] = target: Neu5Ac(a2-8)Neu5Ac(a2-3)Gal(b1-4)Glc
# Outline: as §1
# [23] = target: Neu5Ac(a2-8)Neu5Ac(a2-3)[GalNAc(b1-4)]Gal(b1-4)Glc
# Outline: as §1
# [24] = target: Neu5Ac(a2-8)Neu5Ac(a2-8)Neu5Ac
# Outline: as §1
# [25] = target: Neu5Ac(a2-8)Neu5Ac(a2-8)Neu5Ac(a2-3)Gal(b1-4)Glc
# Outline: as §1
# [26] = target: Neu5Ac(a2-8)Neu5Ac(a2-8)Neu5Ac(a2-3)[GalNAc(b1-4)]Gal(b1-4)Glc
# Outline: as §1
# [27] = target: Neu5Ac(a2-8)Neu5Ac(a2-8)Neu5Ac(a2-8)Neu5Ac(a2-3)[GalNAc(b1-4)]Gal(b1-4)Glc
# Outline: as §1
# [28] = target: Neu5Ac(b2-6)Gal(b1-4)GlcNAc
# Outline: as §1
# [29] = target: Neu5Ac(b2-6)GalNAc
# Outline: as §1
# [30] = target: Neu5Ac9Ac(a2-6)Gal(b1-4)GlcNAc
# Outline: as §1
# [31] = target: Neu5Gc(a2-3)Gal(b1-3)GlcNAc
# Outline: as §1
# [32] = target: Neu5Gc(a2-3)Gal(b1-3)[Fuc(a1-4)]GlcNAc
# Outline: as §1
# [33] = target: Neu5Gc(a2-3)Gal(b1-4)Glc
# Outline: as §1
# [34] = target: Neu5Gc(a2-3)Gal(b1-4)GlcNAc
# Outline: as §1
# [35] = target: Neu5Gc(a2-3)Gal(b1-4)[Fuc(a1-3)]GlcNAc
# Outline: as §1
# [36] = target: Neu5Gc(a2-6)Gal(b1-4)GlcNAc
# Outline: as §1
# [37] = target: Neu5Gc(a2-6)GalNAc
# Outline: as §1
# [38] = target: Neu5Gc(b2-6)Gal(b1-4)GlcNAc
# Outline: as §1
binder,measurement,setting,value
"CBM32-4 (Clostridium perfringens), P26831 (protein) MGSSHHHHHHSSGLVPRGSHMASVYEPSLVDAYVGDDGAKKAVDGDLKTRVKFLGAPSTGDTIVYDLGQEILVDNLKYVVLDTEVDHVRDGKIQLSLDGETWTDAINIGDGVENGVDDMFSTPLKNGYKHGNQSGGIVPIDSAYVEGDNLNQKARYVRILFTAPYRHRWTVINELMINNGEYIPTVNDPT",glycan array binding signal (z-score),[1],0.279
same,glycan array binding signal (z-score),[2],-0.166
same,glycan array binding signal (z-score),[3],-0.527
same,glycan array binding signal (z-score),[4],-0.412
same,glycan array binding signal (z-score),[5],-0.461
same,glycan array binding signal (z-score),[6],0.201
same,glycan array binding signal (z-score),[7],-0.431
same,glycan array binding signal (z-score),[8],-0.291
same,glycan array binding signal (z-score),[9],-0.295
same,glycan array binding signal (z-score),[10],-0.402
same,glycan array binding signal (z-score),[11],-0.426
same,glycan array binding signal (z-score),[12],-0.48
same,glycan array binding signal (z-score),[13],-0.476
same,glycan array binding signal (z-score),[14],-0.336
same,glycan array binding signal (z-score),[15],-0.523
same,glycan array binding signal (z-score),[16],-0.348
same,glycan array binding signal (z-score),[17],-0.302
same,glycan array binding signal (z-score),[18],0.013
same,glycan array binding signal (z-score),[19],-0.363
same,glycan array binding signal (z-score),[20],-0.215
same,glycan array binding signal (z-score),[21],0.241
same,glycan array binding signal (z-score),[22],-0.415
same,glycan array binding signal (z-score),[23],-0.153
same,glycan array binding signal (z-score),[24],-0.281
same,glycan array binding signal (z-score),[25],-0.286
same,glycan array binding signal (z-score),[26],-0.284
same,glycan array binding signal (z-score),[27],-0.481
same,glycan array binding signal (z-score),[28],-0.456
same,glycan array binding signal (z-score),[29],-0.38
same,glycan array binding signal (z-score),[30],-0.446
same,glycan array binding signal (z-score),[31],-0.474
same,glycan array binding signal (z-score),[32],-0.542
same,glycan array binding signal (z-score),[33],-0.272
same,glycan array binding signal (z-score),[34],-0.402
same,glycan array binding signal (z-score),[35],-0.348
same,glycan array binding signal (z-score),[36],-0.448
same,glycan array binding signal (z-score),[37],-0.386
same,glycan array binding signal (z-score),[38],-0.438

# Source: the supplement of paper PMC8728848
